The campaign covered roughly 310,000 compounds. About 2,200 (0.71%) showed an effect of 50% or more. Effects have a minus sign here. This is one part of the list.
Target: human ether-à-go-go-related gene (hERG) potassium channel (human, UniProt Q12809)
Test: primary screen, population patch clamp on CHO cells stably expressing hERG

human ether-à-go-go-related gene (hERG) potassium channel, sequence (Q12809 whole entry, looked up): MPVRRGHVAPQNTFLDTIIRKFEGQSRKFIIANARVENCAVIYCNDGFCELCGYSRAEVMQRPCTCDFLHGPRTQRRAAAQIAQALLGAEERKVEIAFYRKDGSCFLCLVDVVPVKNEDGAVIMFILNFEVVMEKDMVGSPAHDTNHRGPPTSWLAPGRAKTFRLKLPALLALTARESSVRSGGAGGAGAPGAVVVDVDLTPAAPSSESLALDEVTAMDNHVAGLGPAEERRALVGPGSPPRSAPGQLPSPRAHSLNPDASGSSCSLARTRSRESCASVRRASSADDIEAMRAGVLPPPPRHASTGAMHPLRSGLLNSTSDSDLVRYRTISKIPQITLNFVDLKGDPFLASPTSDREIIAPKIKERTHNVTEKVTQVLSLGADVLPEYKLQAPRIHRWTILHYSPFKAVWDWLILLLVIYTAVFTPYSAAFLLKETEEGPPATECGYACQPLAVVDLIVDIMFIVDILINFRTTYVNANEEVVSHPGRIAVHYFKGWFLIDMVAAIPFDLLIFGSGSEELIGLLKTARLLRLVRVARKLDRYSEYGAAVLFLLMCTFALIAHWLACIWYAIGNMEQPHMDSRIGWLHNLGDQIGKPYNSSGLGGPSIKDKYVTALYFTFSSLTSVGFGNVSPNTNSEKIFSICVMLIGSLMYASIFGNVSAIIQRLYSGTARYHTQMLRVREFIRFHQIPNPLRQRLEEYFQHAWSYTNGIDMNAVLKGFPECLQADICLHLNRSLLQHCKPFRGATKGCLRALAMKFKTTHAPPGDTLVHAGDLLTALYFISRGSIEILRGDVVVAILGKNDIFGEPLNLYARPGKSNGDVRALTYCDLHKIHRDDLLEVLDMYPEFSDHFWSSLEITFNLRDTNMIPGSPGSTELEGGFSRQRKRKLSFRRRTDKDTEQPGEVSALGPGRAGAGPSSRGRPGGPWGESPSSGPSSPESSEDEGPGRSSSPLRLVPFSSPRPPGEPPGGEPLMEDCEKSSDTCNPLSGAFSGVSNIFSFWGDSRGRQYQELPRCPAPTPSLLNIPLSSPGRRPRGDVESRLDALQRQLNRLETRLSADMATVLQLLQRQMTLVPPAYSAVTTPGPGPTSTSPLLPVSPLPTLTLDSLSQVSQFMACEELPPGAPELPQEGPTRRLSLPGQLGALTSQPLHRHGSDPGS

Compound	hERG current change (%, negative = inhibition) at 1uM [%]
COc1ccccc1NC(=O)/C=C/c1ccc2c(c1)OCO2	0.155
CCN(C(=O)COC(=O)CN(C)S(=O)(=O)c1ccc(NC(C)=O)cc1)C1CCS(=O)(=O)C1 (stereo not shown)	16.8
CN(C)c1ccc(/C=C2\C(=N)N3N=C(CC(=O)N4CCCC4)SC3=NC2=O)cc1Br	12.1
O=C(O)CCN1C(=O)C2C3c4ccccc4C(c4ccccc43)C2C1=O (stereo not shown)	5.36
CCOC(=O)C1(C(F)(F)F)N=C(C(F)(F)F)Nc2ccc(F)cc21 (stereo not shown)	3.69
O=C(Cn1c(=S)[nH]c2ccccc2c1=O)N1CCc2ccccc2C1	9.68
O=C1C2ON(c3ccccc3)C(c3cccnc3)C2C(=O)N1Cc1ccccc1 (stereo not shown)	-1.58
Cc1ccccc1NC(=O)Cn1nnc2ccccc21	8.89
CN(C(=O)/C=C/c1ccc2c(c1)OCO2)c1ccccc1	2.5
C#CCNC(=O)C1=C[C@H](c2csc3ccccc23)C[C@H](OCc2ccc(CO)cc2)O1	15.1
O=C(Cc1ccccc1[N+](=O)[O-])NNC(=O)Nc1ccc2c(c1)OCO2	-0.266
C#CCOCCOCCOCCNc1nc(N2CCOCC2)nc(N2CCN(C(=O)[C@H](Cc3ccc(O)cc3)n3cc([C@@H](N)C(C)CC)nn3)CC2)n1.Cl (stereo partly shown)	7.76
O=C(COC(=O)c1cccnc1Cl)c1ccc2c(c1)OCCO2	7.33
COc1ccccc1CNC(=O)[C@@H]1CCCN1S(=O)(=O)c1ccc(C)cc1	4.65
COc1c2c(cc3oc(=O)c4c5ccc(O)cc5oc4c13)OC(C)(C)CC2	17.1
CCOc1ccc2nc(NC(=O)C3CCCN(S(=O)(=O)c4cccc5nonc45)C3)sc2c1 (stereo not shown)	4.37
Cc1ccc2c(c1)c(C)c(C)n2CC(O)Cn1nc(C)c(Br)c1C (stereo not shown)	8.65
O=C(NNC(=O)c1ccc(Oc2ccc(C3SCCS3)cc2)o1)c1ccc(Cl)cc1	12.9
O=C1OC(N2C(=O)CC[C@H]2C(=O)Nc2ccc3c(c2)OCO3)c2ccccc21 (stereo partly shown)	0.216
COC(=O)c1sc(NC(=O)c2cc(-c3ccccc3)nc3ccccc23)c(C#N)c1C	-6.75
CCCc1c(C(=O)N/N=C/c2cccc3ccccc23)nnn1-c1nonc1N	10.7
CCOC(=O)C1CCN(C(=O)Cn2nc(CC)n3cccc3c2=O)CC1	12
